Source: the supplement of paper PMC3334620
The full ranking holds about 33,000 sequences; the median of “E-score (-0.5 to 0.5)” is about -0.035, and the highest 2% start at about 0.35. The list shows a part of the results.

Target: T1, Pdr3 (UniProt P33200)
T1 sequence: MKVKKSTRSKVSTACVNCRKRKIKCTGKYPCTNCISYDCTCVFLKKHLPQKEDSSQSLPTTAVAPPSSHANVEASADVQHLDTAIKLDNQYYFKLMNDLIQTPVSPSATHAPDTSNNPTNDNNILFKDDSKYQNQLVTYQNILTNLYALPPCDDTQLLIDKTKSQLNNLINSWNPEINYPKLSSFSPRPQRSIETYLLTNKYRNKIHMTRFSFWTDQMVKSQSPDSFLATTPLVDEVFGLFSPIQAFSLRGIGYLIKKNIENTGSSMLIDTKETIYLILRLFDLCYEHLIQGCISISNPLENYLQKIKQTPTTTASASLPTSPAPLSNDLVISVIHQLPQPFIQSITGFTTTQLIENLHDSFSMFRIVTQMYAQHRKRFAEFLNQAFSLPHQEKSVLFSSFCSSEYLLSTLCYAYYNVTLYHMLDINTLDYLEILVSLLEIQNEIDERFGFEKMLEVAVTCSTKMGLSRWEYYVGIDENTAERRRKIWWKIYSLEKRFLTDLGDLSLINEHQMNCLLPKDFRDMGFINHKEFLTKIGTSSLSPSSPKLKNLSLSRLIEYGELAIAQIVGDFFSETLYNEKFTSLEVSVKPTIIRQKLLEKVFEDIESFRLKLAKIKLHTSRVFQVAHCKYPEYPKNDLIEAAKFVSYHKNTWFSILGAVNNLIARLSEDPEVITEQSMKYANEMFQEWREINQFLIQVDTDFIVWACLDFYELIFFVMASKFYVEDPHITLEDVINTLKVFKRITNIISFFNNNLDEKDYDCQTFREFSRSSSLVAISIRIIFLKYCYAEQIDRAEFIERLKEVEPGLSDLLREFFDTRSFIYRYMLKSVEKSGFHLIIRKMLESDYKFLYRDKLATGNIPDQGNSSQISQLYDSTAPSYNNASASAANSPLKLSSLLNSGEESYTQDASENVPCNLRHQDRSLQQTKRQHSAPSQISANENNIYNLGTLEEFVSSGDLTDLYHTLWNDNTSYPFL
Assay: PBM E-score (8-mer binding enrichment) (E-score (-0.5 to 0.5)); higher = stronger / more preferred TF binding; most listed sequences are background and not binding sites
Conditions: protein concentration: 200 nM; construct: GST-full length
Procedure: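 Universal 'all 10-mer' protein binding microarrays (Agilent AMADID 015681) probed with GST-tagged S. cerevisiae TFs (full-length or DBD) made by in vitro transcription/translation (PURExpress), about 100-200 nM. Bound TF was detected with fluorescent anti-GST. Each ungapped 8-mer (which stands for itself and its reverse complement) is scored by the PBM enrichment score (E-score), a modified Wilcoxon-Mann-Whitney statistic from -0.5 to +0.5, computed with the Universal PBM Analysis Suite. Scale: above 0.35 generally sequence-specific binding.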

Sequence	PBM E-score
GGAACCAC	0.285
CATCCAGG	-0.0852
ATATACTC	-0.115
CACTATAA	-0.289
AGCGTATA	-0.0253
AAGCCGGC	0.366
CCTTGTAC	-0.102
CCCCATAC	0.0163
AGCTCAGG	-0.0384
AGTTTTGG	-0.0613
GTGACCTA	-0.088
AAATCCGA	0.196
CGTGGTAG	-0.0818
CGCTGATC	0.337
TAACCGAA	0.0332
ATCTGATC	0.069
GGTGAATA	0.0918
AAACAGAC	0.0447
ACGGACTA	0.138
CCGTCGCC	0.31
CGCTTAAG	-0.133
AGGGCATC	-0.173
CATGCGTA	0.0245
CCAAGAAA	0.0413
TGCACGCA	-0.139

Sequence	PBM E-score
AATACTAA	0.0745
ATCAAAAT	-0.206
GGTAGGAA	-0.0585
AACGTTCA	-0.293
ACGTTCGG	0.101
GCACGAGC	-0.0491
GCATAGAC	-0.12
AGAAACAT	-0.143
AGGGACCA	-0.166
GCTCCGCC	0.303
AGTCTACC	-0.239
ACTGTTAG	-0.272
GCGTACTA	-0.138
ATGAGCAA	-0.144
AAGACGAT	-0.248
AGCGCGCC	0.129
AGGACAGC	-0.112
GACACCCC	-0.0762
CACTAACC	-0.0502
ACAAGTGA	-0.174
CGAAGTGA	-0.0304
AACGATCT	0.0445
GCTACTCA	-0.0408
ATACAGGA	0.117
AGCGCACT	-0.0919

Sequence	PBM E-score
ACCATCGG	0.0635
ACCGCGTA	0.174
CCAACGGA	0.362
AGAAACTC	0.039
CCGGTCAC	0.175
CTCAACTC	0.137
AACGAATG	0.128
CAGTATAC	-0.174
CAAATACG	-0.17
CGGGGTTC	0.225
GGGGGAAA	0.138
CTAAATGC	-0.0949
AAAGGGAA	-0.175
AAATCATG	-0.0701
CCGTAAAG	0.103
GGCGCCCA	0.099
CTGGTGGA	-0.119
CAAAGAGC	-0.0254
GGAGCCCC	0.00428
CTTTTCAA	-0.154
ATTCAGCA	-0.113
CGCCGAGC	0.124
CCTTGTGC	-0.24
CGTAGACA	-0.189
TGCCCCAA	-0.0375

Sequence	PBM E-score
GAGGTTAC	0.0831
GAAAATAC	0.207
ATGCGAAG	-0.0662
CCAAAATA	0.106
AATCGATG	0.069
AAAGGTAC	0.0362
TCCCCCGA	0.0813
ATACTGAG	0.051
CATGTCAC	-0.00798
CAACAGAA	-0.198
ATTAGAAG	-0.0656
AGGTTGCA	-0.0331
ATCCGAGG	0.305
GATGGTTA	-0.0628
CAGACAAG	-0.0844
AAATCGAA	-0.041
CAGGCCAG	-0.11
CCAGGAGG	-0.165
CATCTGCC	0.00366
TAATCAGA	0.035
CATTTCAC	0.0403
CTCCGCAC	0.0622
GCCCTCAC	-0.147
CCCCTCCA	-0.198
AGATTCCC	0.198

Sequence	PBM E-score
ACGATGGG	-0.0145
CTATAACA	-0.256
CCTGGGGC	-0.0901
AACTGCTC	0.081
CGCTCTCC	-0.00505
ACATGAAT	-0.0685
CGTGCAAC	-0.0779
GTCTTAGA	-0.106
AATACAGG	0.0365
GCTGCTAA	0.0385
ATAACGGA	0.386
AGGCTTAT	-0.181
ATAGCCTA	-0.173
CCATTATC	-0.00386
CCAGTCCG	0.175
AACAGATC	-0.0307
GTTGGCTA	0.0327
ACGCGCCC	0.0361
GGGTTACC	0.0101
AACGAGTA	0.0102
CGTGGATA	0.0566
ATCCAGTC	0.0785
AAGCGGTC	0.00531
ACGTTCAG	-0.203
GCGGTACA	0.0115

Sequence	PBM E-score
AGCACACT	0.0117
AGACTACC	-0.0458
ATCAAACC	0.0783
GCATAGCC	-0.224
ACAACCCC	0.0138
GATGGTAC	0.0447
ATCAGATC	-0.0678
CAATTGTA	0.0227
ACGATTAG	0.00939
GTGTTTAA	-0.0357
GCAAAAGA	-0.106
ATAGCCCG	0.0917
ATACGCGG	0.247
AGGGACTG	-0.128
CTTCGCTC	0.0008
CTGCCGTC	0.127
GAAATCCA	0.156
GGTTAATA	0.0847
CAGCTGGG	-0.0276
CTAACGAA	-0.0337
GGGTGAAC	-0.0605
CTGTTCGA	-0.168
AAGTGATT	0.0676
ATTCCTCC	0.202
CTGTTGCC	-0.213

Sequence	PBM E-score
GACTTTTA	-0.226
ATAGACCG	-0.0966
CGATAAGC	0.0492
TGGAGGAA	-0.0169
AGATAGGG	-0.176
AGACCAAG	0.00844
GAATGCAA	-0.0017
ACCGGTAC	-0.0109
AAGTCATC	-0.123
AGAAGGCC	0.0185
AAGAACGG	0.217
CTGCCAAA	-0.0154
CGATTCTA	-0.129
AAAAGTCC	0.0705
AGTCCACT	-0.18
AAGAAGGT	-0.0424
CTACCGCC	0.00135
AACCTTAT	-0.164
ACTCCGGA	0.456
AACGGATA	0.417
CCAGTCAA	-0.159
ACGGGCAC	0.025
CGCGAGGC	0.112
AATAGATC	0.0595
CCTTAGCC	-0.0458

Sequence	PBM E-score
TCTAAAGA	-0.045
ATGCGAAT	0.0697
AATAATGA	0.0123
GAAAATGA	-0.0287
GGTACTAA	0.119
ACAATCGT	-0.239
GTGGCTAA	-0.168
ACGATCCC	0.183
CCAAGCGG	0.0916
ACCTGATA	-0.0174
CCCGTTCA	0.0529
CCAACAGG	-0.256
CTATATAC	0.145
AAAGGGGG	-0.235
TTGACAAA	-0.0749
CGTCCATA	-0.00531
GCGGTATA	0.137
GGCCACCA	0.167
CGGAATTA	0.43
AGAGCAAG	0.0901
ACACGAGT	0.00719
AGAGATCC	0.117
CTAGCCGC	0.0335
CCACTTAC	0.0485
GGCGCGCC	0.302

Sequence	PBM E-score
ACTACAAT	0.131
ATTGCAAG	-0.0528
AGATCACA	-0.0938
AAGGCTAT	-0.191
AGGCAGAA	-0.0494
CCCGAAAG	0.193
CATGTGGC	-0.0621
CGATCTAC	-0.00638
GTTGCTAA	0.112
CTGTGAAG	-0.22
CCCTGTGA	-0.229
CCTGTTAC	-0.065
CGAACAGC	-0.095
ATTTCCCA	0.0046
ATAACACG	0.0432
AGGCATCC	-0.138
GGAAGTTA	0.191
AATCAAAC	0.108
GGTTCATA	-0.0681
